Screen size: about 310,000 compounds; about 14,000 (4.5%) showed an effect of 50% or more. Effects have a minus sign here. This is one part of the list.

This note sets out measurements from paper PMC4336329 (PLoS ONE, 2015).
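Further: peak tail current of the secondary pulse compared with the same well before compound.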

Sequence of human ether-à-go-go-related gene (hERG) potassium channel (Q12809 whole entry, looked up): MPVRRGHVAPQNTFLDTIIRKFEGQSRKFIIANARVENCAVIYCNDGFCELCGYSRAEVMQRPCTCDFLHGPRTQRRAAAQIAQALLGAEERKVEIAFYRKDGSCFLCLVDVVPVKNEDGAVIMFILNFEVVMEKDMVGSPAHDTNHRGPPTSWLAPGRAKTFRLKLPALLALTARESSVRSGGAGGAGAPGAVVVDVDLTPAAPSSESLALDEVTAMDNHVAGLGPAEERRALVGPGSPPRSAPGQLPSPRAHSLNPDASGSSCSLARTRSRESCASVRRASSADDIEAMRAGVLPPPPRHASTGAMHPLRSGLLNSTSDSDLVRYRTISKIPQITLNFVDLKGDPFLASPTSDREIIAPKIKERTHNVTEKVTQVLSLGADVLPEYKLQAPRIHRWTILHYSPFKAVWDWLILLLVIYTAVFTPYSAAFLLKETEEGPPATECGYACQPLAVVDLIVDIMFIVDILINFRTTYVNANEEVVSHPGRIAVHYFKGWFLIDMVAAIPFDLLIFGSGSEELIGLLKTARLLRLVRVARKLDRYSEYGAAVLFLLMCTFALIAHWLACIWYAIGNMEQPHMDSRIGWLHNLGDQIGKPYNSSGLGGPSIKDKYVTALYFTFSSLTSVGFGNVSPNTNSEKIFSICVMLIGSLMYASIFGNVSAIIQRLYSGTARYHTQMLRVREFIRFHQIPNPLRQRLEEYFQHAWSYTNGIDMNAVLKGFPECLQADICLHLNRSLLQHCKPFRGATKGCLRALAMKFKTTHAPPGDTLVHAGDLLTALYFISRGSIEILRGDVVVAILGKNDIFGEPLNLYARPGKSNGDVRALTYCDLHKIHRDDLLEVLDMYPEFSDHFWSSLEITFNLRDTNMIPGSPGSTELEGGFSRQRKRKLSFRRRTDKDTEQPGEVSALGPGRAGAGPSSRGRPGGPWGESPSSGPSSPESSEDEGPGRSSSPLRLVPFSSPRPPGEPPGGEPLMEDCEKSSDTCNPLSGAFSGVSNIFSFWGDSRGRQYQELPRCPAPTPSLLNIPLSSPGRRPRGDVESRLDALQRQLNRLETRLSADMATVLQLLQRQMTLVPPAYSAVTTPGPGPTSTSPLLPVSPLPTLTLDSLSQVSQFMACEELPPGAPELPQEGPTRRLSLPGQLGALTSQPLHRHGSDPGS

The assay addresses human ether-à-go-go-related gene (hERG) potassium channel (human, UniProt Q12809). Nature of the assay: primary screen, population patch clamp on CHO cells stably expressing hERG.
For the molecule `CCOc1ccc(CCNC(=O)c2ccc3c(=O)n4c(nc3c2)CCCCC4)cc1`, the “hERG current change (%, negative = inhibition) at 10uM” value was -16.3%.

For `CCc1ccc(NC(=S)Nc2cccc3cnccc23)cc1`, the “hERG current change (%, negative = inhibition) at 10uM” value is on record as -15%.

In the case of `Cc1c(O)ccc(/C=N/Nc2nc(-c3cccnc3)nc3ccccc23)c1O`, the “hERG current change (%, negative = inhibition) at 10uM” value is 11.1%.

For `COc1ccccc1C(=O)Nc1nsc(-c2ccccc2)n1`, the “hERG current change (%, negative = inhibition) at 10uM” value is -49.9%.

For `CC(C)NC(=O)c1c(O)c2ccccc2[nH]c1=O`, the “hERG current change (%, negative = inhibition) at 10uM” value is -4.36%.

On to `Cc1ccsc1C(=O)C1CCCN(Cc2ccccc2O)C1` (stereo not shown), for which the “hERG current change (%, negative = inhibition) at 10uM” value is recorded as -48.1%.

As to `O=C1CC(c2ccccc2)CC(O)=C1C=NCc1ccccc1Cl` (stereo not shown), the “hERG current change (%, negative = inhibition) at 10uM” value is reported as -4.3%.

`CCc1nc(SCc2ccc(C(=O)OC)o2)n[nH]1`: the “hERG current change (%, negative = inhibition) at 10uM” value was 8.22%.

`COC(=O)c1ccccc1S(=O)(=O)NNC(=O)Nc1ccccc1`: the “hERG current change (%, negative = inhibition) at 10uM” value was determined as 23.1%.

Take `CCCn1c(N)c(C(=O)CSc2ncc(C(F)(F)F)cc2Cl)c(=O)[nH]c1=O`: the “hERG current change (%, negative = inhibition) at 10uM” value came to 11%.

`Cc1cc(NC(=O)c2ccccc2Cl)no1`: the “hERG current change (%, negative = inhibition) at 10uM” value stood at 19.9%.

For the molecule `CCN(CC)c1nc(Nc2ccccc2)nc(Oc2ccc(=O)n(C)n2)n1`, the “hERG current change (%, negative = inhibition) at 10uM” value amounted to 4.88%.

In the case of `Cc1c(N2C(=O)/C(=C\c3cccc4ccccc34)SC2=S)c(=O)n(-c2ccccc2)n1C`, the “hERG current change (%, negative = inhibition) at 10uM” value is -2.86%.

In the case of `COc1cc(-c2nnn(CC(=O)NC3CCS(=O)(=O)C3)n2)ccc1OCc1ccccc1` (stereo not shown), the “hERG current change (%, negative = inhibition) at 10uM” value was -1.41%.

For `COc1ccc(COCC(O)CN2CC(C)OC(C)C2)cc1OC.Cl` (stereo not shown), the “hERG current change (%, negative = inhibition) at 10uM” value is given as 11.2%.

As for `COc1ccc(CCNC(=O)CCN2C(=O)[C@@H]3Cc4ccccc4CN3C2=O)cc1`, the “hERG current change (%, negative = inhibition) at 10uM” value is -28.3%.

`O=C(CN(Cc1cccs1)C(=O)CSc1nnc(COc2ccccc2)o1)NC1CCCC1`: the “hERG current change (%, negative = inhibition) at 10uM” value is listed as -5.54%.

On to `O=S(=O)(c1ccc(C(F)(F)F)cc1)N1CCCN(c2ccc(C(F)(F)F)cn2)CC1`, for which the “hERG current change (%, negative = inhibition) at 10uM” value was 5.3%.

In the case of `COC(=O)C1CCN(C(=O)COC(=O)C2CCN(S(=O)(=O)c3ccc(C)c(C)c3)CC2)CC1`, the “hERG current change (%, negative = inhibition) at 10uM” value is recorded as 4.25%.

As to `Cc1oc(-c2ccccc2F)nc1CSCC(=O)NCc1ccc2c(c1)OCO2`, the “hERG current change (%, negative = inhibition) at 10uM” value is -32%.

On to `COc1ccc(CN2C(=NC(=O)C3CC3)SC3CS(=O)(=O)CC32)cc1OC` (stereo not shown), for which the “hERG current change (%, negative = inhibition) at 10uM” value was 0.94%.

In the case of `O=C1CC(c2cccc(O)c2)Oc2ccccc21` (stereo not shown), the “hERG current change (%, negative = inhibition) at 10uM” value worked out at 0.458%.

Turning to `CCSc1nsc(NC(=O)Nc2cccc(OC)c2)n1`, the “hERG current change (%, negative = inhibition) at 10uM” value is on record as -8.43%.

`COc1ccc(C2=C(c3ccc([N+](=O)[O-])cc3)C(=O)OC2)cc1`: the “hERG current change (%, negative = inhibition) at 10uM” value is listed as -6.76%.

In the case of `Nc1nc(SCC(=O)NCCCO)nc2sc3c(c12)CCC3`, the “hERG current change (%, negative = inhibition) at 10uM” value is -3.17%.

In the case of `O=C(Cc1ccccc1[N+](=O)[O-])Nc1cccc(S(=O)(=O)NC2=NCCCCC2)c1`, the “hERG current change (%, negative = inhibition) at 10uM” value worked out at 6.24%.

For `Cc1ccccc1CN(CC1CCC(C(=O)O)CC1)C(=S)Nc1ccccc1F` (stereo not shown), the “hERG current change (%, negative = inhibition) at 10uM” value stood at 9.84%.

Consider `Cc1ccccc1OCCC(=O)Nc1cc(S(=O)(=O)N2CCOCC2)ccc1OC(C)C`, for which the “hERG current change (%, negative = inhibition) at 10uM” value is listed as -12.5%.

On to `Cn1c(CN2CCCC2)nc2cc(NC(=O)COc3ccccc3)ccc21`, for which the “hERG current change (%, negative = inhibition) at 10uM” value was -34.1%.

Consider `C=CCn1c(C)cc(C(=O)COC(=O)/C=C/c2cccc(OC)c2)c1C`, for which the “hERG current change (%, negative = inhibition) at 10uM” value is reported as 4.96%.

Consider `CN(C(=O)c1ccoc1)c1ccc2ccccc2c1`, for which the “hERG current change (%, negative = inhibition) at 10uM” value is given as -10.5%.

Regarding `COc1ccc(-n2c(=S)[nH]c3[nH]ncc3c2=O)cc1`, the “hERG current change (%, negative = inhibition) at 10uM” value worked out at 11.3%.

Take `CCCOc1ccc(C(=O)NCC(C)(C)N2CCOCC2)cc1`: the “hERG current change (%, negative = inhibition) at 10uM” value is reported as -29.8%.

For the molecule `CCOC(=O)C1(Cc2ccc(Cl)cc2)CCN(C(=O)C2CCCO2)CC1` (stereo not shown), the “hERG current change (%, negative = inhibition) at 10uM” value is given as -33.2%.

On to `Nc1n[nH]c(CO)n1.O=C(O)CO`, for which the “hERG current change (%, negative = inhibition) at 10uM” value is on record as 18.2%.

In the case of `O=c1c2ccccc2nc(/C=C/c2ccc(F)cc2)n1-c1ccccn1`, the “hERG current change (%, negative = inhibition) at 10uM” value is 7.41%.

`O=C(/C=C/c1ccccc1)NCC1(c2ccccc2)CCOCC1`: the “hERG current change (%, negative = inhibition) at 10uM” value is given as -9.11%.

`c1nnnn1C12CC3CC(CC(C3)C1)C2`: the “hERG current change (%, negative = inhibition) at 10uM” value was determined as 9.79%.

`COc1ccc2[nH]c(C(=O)O)c(NS(=O)(=O)c3ccc(C)cc3C)c2c1`: the “hERG current change (%, negative = inhibition) at 10uM” value came to 10.8%.

In the case of `COc1ccc(CCNC(=O)C(CCC(N)=O)NS(=O)(=O)c2ccc(Cl)cc2)cc1OC` (stereo not shown), the “hERG current change (%, negative = inhibition) at 10uM” value was 23.6%.

As for `CCCCCCCCCC[N+](C)(C)CC/C=C1/c2ccccc2Sc2ccc(Cl)cc21.[Br-]`, the “hERG current change (%, negative = inhibition) at 10uM” value is -76.6%.

As to `O=C1c2cc([N+](=O)[O-])ccc2-c2ncccc21`, the “hERG current change (%, negative = inhibition) at 10uM” value is listed as -4.54%.

As for `CCOC(=O)c1ccc(N2CN(CC)CNC2=S)cc1`, the “hERG current change (%, negative = inhibition) at 10uM” value stood at 7.25%.

`COC(=O)c1sc(S(=O)(=O)Nc2ccc(Br)cc2)c(C(=O)OC)c1C`: the “hERG current change (%, negative = inhibition) at 10uM” value was 2.75%.

Take `CC(C)(C)OC(=O)C(C)(C)Sc1nnc(N)s1`: the “hERG current change (%, negative = inhibition) at 10uM” value was 5.38%.

For the molecule `CN(C)S(=O)(=O)c1cccc(NC(=O)CCCc2nc3ccccc3c(=O)[nH]2)c1`, the “hERG current change (%, negative = inhibition) at 10uM” value stood at 4.07%.
